According to PubChem BioAssay AID485313 (National Center for Advancing Translational Sciences (NCATS), 2010):
The campaign covered roughly 320,000 compounds. About 7,600 (2.4%) were called active. The shares of active, inactive and inconclusive entries below differ from those in the screen. The call rests on the fitted dose curve; in most records, active means well fitted activation curve with a large enough effect; inconclusive means small, poorly fitted or top-dose-only effect; inactive means no such curve, though single readings can be large or run the other way. No potency is given beside an inconclusive call; the fits are too rough.

assay: qHTS Assay for NPC1 Promoter Activators; settings: Huh7 NPC1 promoter luciferase reporter, 24 h; series mostly up to 9.22 µM; activation: at the top concentration; further: nearly all actives have a fitted effect of over 60% in size;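 on activation: reporter is driven by a mutant NPC1 promoter; % of control where 0% means no effect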
Outline: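 Quantitative HTS used a cell-based reporter: Huh7 cells stably bearing the NPC1 promoter upstream of luciferase were treated with compounds for 24 h, and promoter activation was read as luminescence.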
Potency means the concentration at half of the fitted maximal effect; tags describe the fitted curve by direction and shape.

SMILES	activation	Potency
Cc1ccc(C(=O)OCC(=O)NNC(=O)c2cccs2)c(O)c1	inactive: 0.862%	–
O=C(CCl)N1CCN(S(=O)(=O)c2ccc3c(c2)CCC3)CC1	inactive: -42.3%	–
Cc1nc(SCC(=O)NCCc2ccc(Cl)cc2)nc(C)c1C	inactive: -0.708%	–
C=C(C)CSc1nnc(-c2ccc(OC)cc2)n1N	–	inconclusive [activator, partial curve]
CC(=O)Nc1ccc(Cl)c(-c2nc3ncccc3o2)c1	inactive: -0.415%	–
CSc1nc2sc3c(c2c(=O)n1C)CCC(C)C3 (stereo not given)	inactive: 2.37%	–
C/C(=N\Nc1nc2ccccc2s1)c1cccs1	–	inconclusive [activator, single point]
COc1ccc(C(=O)Cc2cc(OC)c(OC)cc2[N+](=O)[O-])cc1	–	inconclusive [activator, partial curve]
Cc1cc(C)cc(NC(=O)CSc2nnc(CNC(=O)c3ccco3)n2C)c1	inactive: -3.45%	–
Cc1cccc(C(=O)NC(=S)Nc2cccc3nc(C)ccc23)c1	inactive: 0.534%	–
Cc1ccccc1Nc1c(-c2ccc(N3CCOCC3)cc2)nc2cnccn12	–	inconclusive [activator, partial curve]
Nc1nc(N2CCN(C(=O)c3ccco3)CC2)nc2ccc(Br)cc12	–	active: 2 µM
COC(=O)c1cccc(NC(=O)c2cc3ccccc3o2)c1	–	active: 0.708 µM
CCN(CC)S(=O)(=O)c1cccc(-c2nnc(SCCCC(=O)c3ccc(F)cc3)o2)c1	inactive: -2.47%	–
O=C(Cn1cccc1C(=O)c1ccccc1)NCc1ccccc1Cl	–	inconclusive [activator, single point]
Cn1cccc1C(=O)C(=O)Nc1ccc(F)c(F)c1	–	active: 2 µM
COC(=O)c1cccc(NC(=O)Nc2ccc(Cl)c(Cl)c2)c1	–	inconclusive [activator, single point]
COc1ccc(CNc2nc(Cl)c(C#N)s2)cc1	–	inconclusive [activator, single point]
CCCCCCNC(=O)N[C@H](C(=O)NCCC[C@H]1CN2C(=NC[C@H]2C)N1CCC(c1ccccc1)c1ccccc1)C(C)O (stereo not given in full)	inactive: 4.04%	–
C=CCOc1ccc(C(=O)NC2CCCCC2)cc1	–	inconclusive [activator, partial curve]
FC(F)Oc1ccc(NC(=S)N2CCc3ccccc32)cc1	–	inconclusive [activator, partial curve]
Cc1ccc(NS(=O)(=O)c2ccc(Cl)c(NC(=S)NC(=O)C3CCCCC3)c2)cc1Cl	inactive: -5.56%	–
Clc1ccc(-n2ncc3c(NCCCn4ccnc4)ncnc32)cc1	–	inconclusive [activator, single point]
O=C(Nc1nnc(Cc2ccccc2F)s1)Nc1ccccc1F	–	inconclusive [activator, single point]
COc1cccc(N2CCN(C(=O)c3cc(-c4ccc(F)cc4)[nH]c3C)CC2)c1	inactive: 1.11%	–
O=C(NCc1ccc(F)cc1)N1CCc2ccccc2C1	–	inconclusive [activator, single point]
CCCCCOc1ccc(CSc2n[nH]c(C)n2)cc1	inactive: 0.664%	–

SMILES	activation	Potency
O=C(O)c1cccc(NC(=S)NC(=O)c2ccc(-c3ccc(Cl)cc3)o2)c1	inactive: 17.7%	–
Cc1ccc(C(=O)OCc2nc3ccsc3c(=O)[nH]2)o1	inactive: 13.3%	–
CCOc1ccc(NS(=O)(=O)c2cc(C(=O)NCCCN3CCCC3=O)ccc2C)cc1	inactive: 0.231%	–
COc1cccc(S(=O)(=O)NC2CCN(C#N)C2)c1 (stereo not given)	inactive: 0.786%	–
COc1ccc(NC(=O)CCNC(=O)c2ccco2)cc1Cl	inactive: -3.18%	–
CCN1C(=O)/C(=C/N2CCc3ccccc32)SC1=S	–	active: 2.82 µM
CCOC(=O)N1CCN(S(=O)(=O)c2ccc(C(=O)N(CCCN(C)C)c3nc4ccc(CC)cc4s3)cc2)CC1	–	inconclusive [activator, partial curve]
COc1ccc(NC(=S)NC(NC(=O)c2cccc(Cl)c2)C(Cl)(Cl)Cl)c([N+](=O)[O-])c1 (stereo not given)	inactive: 0.392%	–
O=C(O)c1ccccc1CSc1nc2ccccc2[nH]1	–	inconclusive [activator, partial curve]
O=C(Cc1ccccc1)Nc1ccc(NC(=O)c2cccs2)cc1Cl	inactive: -1.4%	–
Cc1ccc(N=Nc2c(C)[nH]n(C(N)=S)c2=O)cc1	–	inconclusive [activator, single point]
Cc1ccc(-c2noc(-c3ccccc3Br)n2)cc1	–	active: 0.794 µM
Cc1nn(-c2ccccc2)c(N)c1Sc1ccc([N+](=O)[O-])cc1	inactive: 9.44%	–
Cc1ccc(O)c(NC(=O)CCC2CCCCC2)c1	–	inconclusive [activator, single point]
CCOc1ccc(OCc2ccc(C(=O)Nc3cccc(C)n3)o2)cc1	–	inconclusive [activator, single point]
Cc1cc(C)cc(N(CC(=O)NC2CCCC2)C(=O)CCC(=O)Nc2nccs2)c1	–	inconclusive [activator, single point]
Brc1ccc(N=NNc2ccccc2)cc1	–	inconclusive [activator, single point]
COc1cccc(C(=O)Nc2cccc(OC(C)=O)c2)c1	–	inconclusive [activator, single point]
O=C1CN(C(=O)CSc2nc(-c3ccc(Cl)cc3)cs2)c2ccccc2N1	inactive: -2.29%	–
CC(=O)c1ccc2oc3ccccc3c(=O)c2c1	–	inconclusive [activator, single point]
C=CCNC(=O)c1ccc(S(=O)(=O)CC)c(Cl)c1Cl	inactive: -3.79%	–
O=C(c1cc(-c2ccccc2Cl)on1)N1CCCC1	–	inconclusive [activator, single point]
Nc1nc(-c2ccccn2)nc(N)c1Cc1ccccc1F	–	inconclusive [activator, single point]
Cc1ccc(-c2nnc(Cc3ccc([N+](=O)[O-])cc3)o2)cc1	–	inconclusive [activator, partial curve]
Cc1oc(-c2ccc(-c3ccccc3)cc2)nc1CN(CCO)C(C)C	–	inconclusive [activator, full curve, poor fit]
CCCCCNc1nc(-c2ccccc2)cs1	–	active: 3.98 µM
O=C(c1cc2nc(-c3ccco3)cc(C(F)(F)F)n2n1)N1CCc2ccccc2C1	inactive: 1.85%	–

SMILES	activation	Potency
CS(=O)(=O)N1N=C(c2ccc(Br)cc2)CC1c1cccs1 (stereo not given)	–	inconclusive [activator, partial curve]
Cc1cc2ncc(-c3ccc(Cl)cc3)c(N)n2n1	–	inconclusive [activator, partial curve]
CCn1cc(S(=O)(=O)Nc2ccc3c(c2)OCCO3)cn1	inactive: 2.68%	–
Fc1ccc(-c2nc(-c3cccs3)no2)cc1	–	active: 2 µM
NC(=O)N/N=C/c1cn(-c2ccccc2)nc1-c1cccs1	–	inconclusive [activator, single point]
COc1ccc(C2=NCN(c3ccc(C)cc3)C(=S)N2)cc1	–	inconclusive [activator, partial curve]
COc1cc(SC)ccc1C(=O)Nc1nc(C)cs1	–	inconclusive [activator, single point]
O=C(CN1C(=O)c2ccccc2S1(=O)=O)Nc1ccccc1	–	inconclusive [activator, single point]
COc1ccc(NC(=O)N2CCc3ccccc3C2)cc1	–	inconclusive [activator, partial curve]
O=C(c1cc(-c2ccc(Cl)cc2)on1)N1CCOCC1	–	active: 0.398 µM
O=c1/c(=C\c2cccn2-c2ccccc2)sc2nc3ccccc3n12	–	inconclusive [activator, partial curve]
CCN(CC(=O)Nc1ccc(NC(C)=O)cc1)C(=O)c1ccc(NC2CC2)c([N+](=O)[O-])c1	inactive: -2.88%	–
C/C(=N\NC(=O)c1sccc1C)c1ccncc1	–	inconclusive [activator, partial curve]
CSc1ccccc1C(=O)Nc1ccccc1C(=O)NC(C)C	inactive: -2.63%	–
CC(C)c1ccc(CNc2ccc3c(c2)ncn3C)cc1	–	active: 3.16 µM
Cc1cc(C(=O)N2CCCC(Nc3ccccc3)C2)c2ccc(F)cc2n1 (stereo not given)	inactive: 1.25%	–
Cc1ccc(C(=O)NC2CCCC2)s1	inactive: 19.1%	–
Cc1ncsc1C(=O)Nc1nc2c(s1)CC(C)CC2 (stereo not given)	–	active: 1.78 µM
COc1ccc(NC(=O)/C(C#N)=C\c2ccc(N3CCOCC3)o2)cc1	–	inconclusive [activator, single point]
COc1ccc(OCc2cc(C(=O)N3CCC(c4ccccc4)CC3)no2)c(Cl)c1	–	inconclusive [activator, partial curve]
N/C(=N\OC(=O)c1ccc(F)cc1)c1ccc(Br)cc1	–	inconclusive [activator, single point]
O=C(COc1ccc(Cl)cc1Cl)Nc1ccc(-c2ccc(N3CCOCC3)nn2)cc1	–	inconclusive [activator, partial curve]
Cc1ccc(SCc2cn3ccccc3n2)cc1	–	active: 1.26 µM
CCCCOc1ccc(-c2nnc(-c3ccncc3)o2)cc1	–	inconclusive [activator, single point]
Nc1c(C(=O)c2ccccc2)sc2nsc(SCCN3CCOCC3)c12	–	inconclusive [activator, partial curve]
Nc1c(S(=O)(=O)O)cc(Nc2ccc(Nc3nc(Cl)nc(Nc4ccc(S(=O)(=O)O)cc4)n3)c(S(=O)(=O)O)c2)c2c1C(=O)c1ccccc1C2=O	inactive: -6.88% [at 46.1 µM]	–
